# The supplement of paper PMC8512760
# Counter-ions that a name gives are not always drawn. The list shows a part of the results. Single values are uncertain, as repeats are few or missing.
# System: HCC-1143
# Assay: cell viability relative to vehicle (% of vehicle); basal-like triple-negative breast cancer lines; higher = less cytotoxic
# Settings: 10 µM; 72 h
# 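Note: stably firefly luciferase-GFP labeled cells in 96-well plates, viability read as luciferase photon flux after d-luciferin addition, treated wells normalized to vehicle wells, single-dose high-throughput screen.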
row,SMILES,cell viability
1,Nc1nc(N)nc(-c2cc(Cl)ccc2Cl)n1 [Irsogladine],79.9
2,Cc1c(O)c(=O)ccn1C [Deferiprone],104
3,CS(=O)(=O)O.Cc1ccc(N(CC2=NCCN2)c2cccc(O)c2)cc1 [Phentolamine Mesylate],78.1
4,CC(=O)C1CCC2C3CCC4=CC(=O)CCC4(C)C3CCC12C (stereo not drawn) [Progesterone],103
5,CCc1c2c(nc3ccc(OC(=O)N4CCC(N5CCCCC5)CC4)cc13)-c1cc3c(c(=O)n1C2)COC(=O)[C@]3(O)CC [Irinotecan HCl Trihydrate],73.2
6,CC(C)COc1ccc(CNC(=O)N(Cc2ccc(F)cc2)C2CCN(C)CC2)cc1 [Pimavanserin],78

# System: HCC-1187
# Assay: as above
# Settings: 10 µM; 72 h
row,SMILES,cell viability
1,O=C([O-])P(=O)([O-])[O-].[Na+].[Na+].[Na+] [Foscarnet Sodium],116
2,CNC(=O)c1ccccc1Sc1ccc2c(C=Cc3ccccn3)n[nH]c2c1,58.4
3,Nc1ccc(O)c(C(=O)O)c1 [Mesalamine],114
4,Cc1cccc(-c2nn3c(c2-c2ccnc4ccc(C(N)=O)cc24)CCC3)n1,127
5,C[C@H]1COc2c(N3CCN(C)CC3)c(F)cc3c(=O)c(C(=O)O)cn1c23 [Levofloxacin],103
6,COc1cnc(NS(=O)(=O)c2ccc(N)cc2)nc1 [Sulfameter],75.1
7,Cl.NCCCC(N)(C(=O)O)C(F)F.O (racemic) [DL-α-Difluoromethylornithine (hydrochloride hydrate)],79
8,CCc1cc(C(C)=NOCc2ccc(C3CCCCC3)c(C(F)(F)F)c2)ccc1CN1CC(C(=O)O)C1 [BAF312 (Siponimod)],78.7
9,"CN1CCN(c2ccc3c(c2)NC(=C2C(=O)N=c4cccc(F)c4=C2N)N3)CC1 [Dovitinib (TKI-258, CHIR-258)]",48.5
10,CNC(C)C1CCC(N)C(OC2C(N)CC(N)C(OC3OCC(C)(O)C(NC)C3O)C2O)O1.O=S(=O)(O)O (stereo not drawn) [Gentamycin Sulfate],90.9
11,C=C1C(CO)C(O)CC1n1cnc2c(=O)nc(N)[nH]c21.O (stereo not drawn) [Entecavir Hydrate],91.9
12,CN1CCN(c2ccc(C(=O)/N=c3\[nH][nH]c4ccc(Cc5cc(F)cc(F)c5)cc34)c(NC3CCOCC3)c2)CC1 [Entrectinib],26.9
13,Cc1cccc(C)c1OCC(C)N.Cl (stereo not drawn) [Mexiletine HCl],101
14,CCc1cccc2c3c([nH]c12)C(CC)(CC(=O)O)OCC3 (stereo not drawn) [Etodolac],78.8
15,Cc1cn(-c2cc(/N=C(\O)c3ccc(C)c(Nc4nccc(-c5cnccn5)n4)c3)cc(C(F)(F)F)c2)cn1 [Radotinib(IY-5511)],82.7
16,CC(=O)SCC(Cc1ccccc1)C(=O)NCC(=O)OCc1ccccc1 (stereo not drawn) [Racecadotril],82.8
17,CC(C)=CCCC(C)=CCCC(C)=CCSc1ccccc1C(=O)O [Salirasib],51.9
18,COC(=O)C=CC(=O)OC [Dimethyl Fumarate],92.3
19,CCS(=O)(=O)CCn1c([N+](=O)[O-])cnc1C [Tinidazole],78.6
20,Cc1cc(-n2c(=O)[nH]c(=O)n(C)c2=O)ccc1Oc1ccc(SC(F)(F)F)cc1 [Toltrazuril],88.6
21,CCCCCCCCCCCC1=C(O)C(=O)C=C(O)C1=O [Embelin],86.2
22,CC(C)C(=O)Nc1ccc([N+](=O)[O-])c(C(F)(F)F)c1 [Flutamide],93.3
23,CC(C)n1c(C=CC(O)CC(O)CC(=O)[O-])c(-c2ccc(F)cc2)c2ccccc21.[Na+] (stereo not drawn) [Fluvastatin Sodium],53.1
24,O=C(C1CCCCC1)N1CC(=O)N2CCc3ccccc3C2C1 (stereo not drawn) [Praziquantel],98.6
25,Cn1cnc2c(F)c(Nc3ccc(Br)cc3F)c(C(=O)NOCCO)cc21,75.4
26,CC1OC(OCC2OC(Oc3c(-c4ccc(O)c(O)c4)oc4cc(O)cc(O)c4c3=O)C(O)C(O)C2O)C(O)C(O)C1O (stereo not drawn) [Rutin],98.4
27,Cl.O=C1OC(CN2CCOCC2)CN1N=Cc1ccc([N+](=O)[O-])o1 (stereo not drawn) [Furaltadone HCl],90.9
